Whole data set: some 18,000 sequences, median “TetR repression strength (sort-seq, GFP reporter)” near 0.23, cut for the highest 2% near 0.68. The list shows a part of the results.
biological target: TetR (class B, Tn10) (UniProt P04483); test: TetR repression strength (sort-seq, GFP reporter) (relative to tetO2 = 1); higher = stronger repression; settings: E. coli
How it was run: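 Escherichia coli SIG10-MAX cells carried a low-copy plasmid library in which eight operator positions were randomized between a constitutive promoter and sfGFP, and TetR was expressed constitutively. After 5 h of growth at 37 °C in LB with 50 µg/mL chloramphenicol, 10^6 cells were FACS-sorted into 13 fluorescence bins, and each bin was Illumina-sequenced. Repression strength was the top bin index plus one minus the read-weighted mean bin, divided by the value for the unaltered operator. Across three independent transformations, only library members with ≥30 reads in every replicate and a CV ≤0.5 were averaged.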

Chain of UniProt P04483 (P04483 whole entry): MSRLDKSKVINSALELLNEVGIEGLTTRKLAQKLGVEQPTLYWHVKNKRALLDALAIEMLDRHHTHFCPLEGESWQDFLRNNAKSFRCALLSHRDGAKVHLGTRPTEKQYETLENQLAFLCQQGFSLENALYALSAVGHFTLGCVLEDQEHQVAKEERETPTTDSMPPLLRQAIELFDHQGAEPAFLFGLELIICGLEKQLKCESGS

| Sequence | TetR repression strength |
| --- | --- |
| TCCCCGATAGTTCGGGAGA | 0.337 |
| TCCCAAGTAGTTGAGGAGA | 0.321 |
| TCCCTGTCAGTTGTGGAGA | 0.171 |
| TCCCGTACAGTGGGCGAGA | 0.203 |
| TCCCCGTGAGTGTGCGAGA | 0.161 |
| TCCCAGATAGTAACCGAGA | 0.601 |
| TCCCACGCAGTTGTTGAGA | 0.306 |
| TCCCTTCAAGTTTACGAGA | 0.407 |
| TCCCAGACAGTAACCGAGA | 0.473 |
| TCCCGTCGAGTGGTGGAGA | 0.154 |
| TCCCACGCAGTAGATGAGA | 0.131 |
| TCCCATGAAGTCGGAGAGA | 0.216 |
| TCCCATTCAGTGTTTGAGA | 0.318 |
| TCCCCACCAGTCACGGAGA | 0.152 |
| TCCCATCTAGTATTTGAGA | 0.512 |
| TCCCAATAAGTATGCGAGA | 0.238 |
| TCCCGAACAGTGGTAGAGA | 0.381 |
| TCCCCCTTAGTGAGTGAGA | 0.113 |
| TCCCAGATAGTTAAGGAGA | 0.222 |
| TCCCACGCAGTGCGGGAGA | 0.225 |
| TCCCTAGCAGTTGTAGAGA | 0.509 |
| TCCCAATCAGTGAAGGAGA | 0.671 |
| TCCCTCGTAGTCAGGGAGA | 0.305 |
| TCCCTTCCAGTACATGAGA | 0.233 |
| TCCCGTAGAGTCTATGAGA | 0.141 |
| TCCCCTCCAGTGGCTGAGA | 0.161 |

| Sequence | TetR repression strength |
| --- | --- |
| TCCCGTAGAGTAAGCGAGA | 0.192 |
| TCCCGAGGAGTGGTAGAGA | 0.256 |
| TCCCGGGTAGTAGGCGAGA | 0.304 |
| TCCCGAACAGTCGGGGAGA | 0.0895 |
| TCCCGGCCAGTATTCGAGA | 0.104 |
| TCCCAAATAGTACGCGAGA | 0.228 |
| TCCCATACAGTGTTGGAGA | 0.408 |
| TCCCCTGAAGTTCGGGAGA | 0.272 |
| TCCCGGGAAGTGGTCGAGA | 0.281 |
| TCCCATTGAGTTTGAGAGA | 0.213 |
| TCCCGCCGAGTCTCAGAGA | 0.207 |
| TCCCAGGGAGTGTGAGAGA | 0.229 |
| TCCCTAATAGTCGGAGAGA | 0.323 |
| TCCCTGTGAGTGTAGGAGA | 0.174 |
| TCCCAGGGAGTCAGTGAGA | 0.319 |
| TCCCCTACAGTAGCGGAGA | 0.171 |
| TCCCCTCGAGTACGGGAGA | 0.0841 |
| TCCCGCTTAGTCGGGGAGA | 0.522 |
| TCCCTATCAGTGCGTGAGA | 0.546 |
| TCCCCTCGAGTCGCGGAGA | 0.194 |
| TCCCGAAGAGTGAAGGAGA | 0.179 |
| TCCCAATCAGTCGCAGAGA | 0.268 |
| TCCCCCCTAGTATAAGAGA | 0.524 |
| TCCCCCTAAGTGCGAGAGA | 0.0843 |
| TCCCGAACAGTGGCCGAGA | 0.276 |
| TCCCTACGAGTTTCGGAGA | 0.289 |

| Sequence | TetR repression strength |
| --- | --- |
| TCCCAATGAGTTTTGGAGA | 0.218 |
| TCCCAGGAAGTGGTGGAGA | 0.147 |
| TCCCCCAGAGTTAGCGAGA | 0.425 |
| TCCCATTGAGTTCGGGAGA | 0.851 |
| TCCCATGTAGTGACAGAGA | 0.541 |
| TCCCTGGCAGTGACAGAGA | 0.515 |
| TCCCGGGGAGTTTACGAGA | 0 |
| TCCCGTTTAGTGGGTGAGA | 0.306 |
| TCCCAACGAGTAAATGAGA | 0.6 |
| TCCCGATCAGTAACAGAGA | 0.281 |
| TCCCGCCTAGTGGCCGAGA | 0.281 |
| TCCCTAGCAGTTTAGGAGA | 0.276 |
| TCCCGCTAAGTTTCTGAGA | 0.393 |
| TCCCCCCAAGTTTACGAGA | 0.398 |
| TCCCCCACAGTTAAAGAGA | 0.333 |
| TCCCGAGGAGTCCCTGAGA | 0.381 |
| TCCCGTGGAGTAGGAGAGA | 0.198 |
| TCCCTTTAAGTGGCCGAGA | 0.453 |
| TCCCCTGTAGTGTTAGAGA | 0.184 |
| TCCCTAGTAGTGTGTGAGA | 0.287 |
| TCCCGCACAGTGCCAGAGA | 0.277 |
| TCCCGTGGAGTAGTTGAGA | 0.242 |
| TCCCAGGAAGTAGGTGAGA | 0.213 |
| TCCCATCTAGTGAGGGAGA | 0.36 |
| TCCCTAGCAGTCGAAGAGA | 0.189 |
| TCCCCTGGAGTATGCGAGA | 0.196 |

| Sequence | TetR repression strength |
| --- | --- |
| TCCCGACCAGTCGTGGAGA | 0.158 |
| TCCCTCTTAGTTTTTGAGA | 0.207 |
| TCCCTGCCAGTATTAGAGA | 0.343 |
| TCCCACGGAGTCACCGAGA | 0.205 |
| TCCCAACTAGTCGTTGAGA | 0.236 |
| TCCCAGTTAGTAGGAGAGA | 0.229 |
| TCCCTTTTAGTCGGAGAGA | 0.598 |
| TCCCGGAGAGTGGTGGAGA | 0.29 |
| TCCCCCGAAGTGTCGGAGA | 0.21 |
| TCCCGAAGAGTAACTGAGA | 0.279 |
| TCCCTTGAAGTTGTTGAGA | 0.202 |
| TCCCGACGAGTTTCGGAGA | 0.0777 |
| TCCCCCCAAGTGCGAGAGA | 0.194 |
| TCCCAGCTAGTTTTGGAGA | 0.212 |
| TCCCGTTAAGTGGCGGAGA | 0.134 |
| TCCCTGCGAGTGTGAGAGA | 0.116 |
| TCCCTGTGAGTGAGTGAGA | 0.242 |
| TCCCATAGAGTCCTTGAGA | 0.333 |
| TCCCTTTGAGTCCTTGAGA | 0.22 |
| TCCCGGTTAGTCAAAGAGA | 0.316 |
| TCCCAGGGAGTTCCCGAGA | 0.272 |
| TCCCTGGGAGTACGCGAGA | 0.116 |
| TCCCGTTAAGTCAAGGAGA | 0.383 |
| TCCCGCAGAGTTAGCGAGA | 0.168 |
